Test results: EP3915580A1 (Numab Therapeutics AG, dated 2021)

Target: biotinylated MSLN (human) (human, UniProt Q13421 296-580, limits assumed, biotinylated)
Experiment: competition ELISA, blockade of biotinylated MSLN binding to coated MUC16

Chain of UniProt Q13421 (Q13421 other isoform, or with tags, fused parts or gaps limits assumed): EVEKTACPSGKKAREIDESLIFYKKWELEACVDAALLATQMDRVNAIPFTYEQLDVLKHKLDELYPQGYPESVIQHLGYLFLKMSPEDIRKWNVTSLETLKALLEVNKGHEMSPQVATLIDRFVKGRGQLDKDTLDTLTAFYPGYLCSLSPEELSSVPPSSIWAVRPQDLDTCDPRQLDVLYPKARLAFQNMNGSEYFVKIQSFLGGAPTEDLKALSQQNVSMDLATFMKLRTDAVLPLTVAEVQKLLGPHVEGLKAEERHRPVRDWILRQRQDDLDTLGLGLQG

- IC50: 0.014 nM
B1: Amatuximab (antibody, V domains shown)
VH: not shown
VL: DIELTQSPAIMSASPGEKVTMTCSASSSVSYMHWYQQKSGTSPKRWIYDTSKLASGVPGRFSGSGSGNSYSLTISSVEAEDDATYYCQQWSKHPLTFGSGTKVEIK
